Results taken from PubChem BioAssay AID686979 (National Center for Advancing Translational Sciences (NCATS), 2013).
About 50,000 (12%) of roughly 420,000 compounds were called active. The inconclusive results got no clear call from the source; some entries with a clear call stand among them for comparison. The call rests on the fitted dose curve; in most records, active means well fitted inhibition curve with a large enough effect; inconclusive means small, poorly fitted or top-dose-only effect; inactive means flat fitted curve, though single readings scatter. Potencies of inconclusive entries are left out as doubtful fits.

Experiment: qHTS for Inhibitors of human tyrosyl-DNA phosphodiesterase 1 (TDP1): qHTS in cells in presence of CPT; further: nearly all actives have a fitted effect of over 55% in size
Conditions: chicken DT40 Tdp1-/-;hTDP1 cells + 20 nM CPT, ATP luminescence, 48 h; activity change, negative = growth inhibition: at 46.2 µM (top of the series)
In short: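 Chicken DT40 Tdp1-/- cells complemented with human TDP1, 400 cells/well, exposed to compounds plus 20 nM camptothecin for at least 48 h at 37 C; viability read as ATP content by CellTiter-Glo luminescence.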
On the % scale 0 is the no-effect control and ±100 the full control effect; potency means the concentration at half of the fitted maximal effect; tags describe the fitted curve by direction and shape.

Row | SMILES | Potency | activity change, negative = growth inhibition
1 | C(=Nc1ccc2ccccc2n1)c1ccccn1 | inconclusive [inhibitor, single point] | –
2 | COC(=O)C[C@H]1C=C[C@@H](NS(=O)(=O)c2ccc(C)cc2)[C@@H](CO)O1 | – | inactive: 13.9%
3 | CCN1CCc2c(sc(-n3cccc3)c2C(C)NC(=O)Nc2cc(Cl)c(OC)cc2OC)C1 (centres undefined) | active: 18.4 µM | –
4 | CC1(C)CC(=O)c2cc(-c3nc(-c4ccc(Cl)cc4)cs3)c(=O)[nH]c2C1 | – | inconclusive: -1.7% [inhibitor]
5 | CCCC(=O)Nc1ccc(Cl)c(NC(=O)c2ccc(Br)o2)c1 | inconclusive [inhibitor, single point] | –
6 | c1ccc(C2Nc3ccccc3-c3nc4ccccc4n32)cc1 (centres undefined) | inconclusive [inhibitor, single point] | –
7 | CCNC(=O)C1(C)CCN(Cc2ccccc2-c2ccccc2)C1 (centres undefined) | inconclusive [inhibitor, partial curve] | –
8 | CCOC(=O)Cn1c(S(=O)(=O)Cc2ccc(Cl)cc2)nc(-c2ccccc2)c1-c1ccccc1 | active: 18.4 µM | –
9 | CC(NC(=O)CN1C(=O)NC2(CCCC2)C1=O)c1ccc(Cl)cc1Cl (centres undefined) | inconclusive [inhibitor, single point] | –
10 | O=C(NNC(=O)C1CCCCC1)c1cnccn1 | – | inactive: -16.2%
11 | CCCOc1ccc(F)cc1-c1cc(C(=O)Nc2ccc(F)cc2)[nH]n1 | inconclusive [inhibitor, single point] | –
12 | COc1ccc(CCNc2oc(COc3cccc(C)c3)nc2C#N)cc1OC | inconclusive [inhibitor, single point] | –
13 | Cc1sc2c(c1C)c(=O)n(Cc1ccccc1)c(=O)n2CC(=O)N(C)c1ccccc1 | inconclusive [inhibitor, single point] | –
14 | O=C(CN1C(=O)NC2(CCCCCC2)C1=O)c1ccccc1 | inconclusive [inhibitor, partial curve] | –
15 | CCCNC(=O)c1cnn2c(C(F)F)cc(-c3ccccc3)nc12 | active: 20.6 µM | –
16 | Cn1cc(C(c2ccccn2)c2cn(C)c3ccccc23)c2ccccc21 | inconclusive [inhibitor, single point] | –
17 | O=C(NN1CC(C(=O)OCc2ccc(Cl)cc2Cl)CC1=O)c1ccccc1 (centres undefined) | – | inactive: -0.522%
18 | CC1CCc2nc3ccccc3c(C(=O)OCC(=O)N3CCc4ccccc43)c2C1 (centres undefined) | active: 8.2 µM | –
19 | C/C(N)=C(/C#N)C(=O)CSc1nnnn1-c1ccc(C)cc1C | active: 23.1 µM | –
20 | CN(C(=O)COC(=O)/C=C/c1cccc([N+](=O)[O-])c1)C1CCS(=O)(=O)C1 (centres undefined) | – | inactive: -11.9%
21 | COc1cc(OC)cc(C(=O)NCC(=O)OCC(=O)N2CCc3ccccc32)c1 | inconclusive [inhibitor, single point] | –
22 | CCc1ccccc1NC(=S)N(Cc1ccc(OC)cc1)CC1CCC(C(=O)O)CC1 (centres undefined) | inconclusive [inhibitor, partial curve] | –

Row | SMILES | Potency | activity change, negative = growth inhibition
23 | CC1CCN(S(=O)(=O)c2ccc3c(ccc(=O)n3CC(=O)NCc3ccc(Cl)cc3)c2)CC1 | inconclusive [inhibitor, single point] | –
24 | COc1ccc(NC(=O)Nc2ccc3c(c2)C(=O)N([C@H](C)CO)C[C@H](C)[C@H](CN(C)Cc2ccc(C(=O)O)cc2)OCCCC[C@@H](C)O3)cc1 | – | inactive: 0.662%
25 | Cc1c(OC(C)C(=O)N2C[C@H]3C[C@@H](C2)c2cccc(=O)n2C3)ccc2c3c(c(=O)oc12)CCC3 (some centres undefined) | inconclusive [inhibitor, single point] | –
26 | C=CCC[C@H](CCCCC)OC(=O)/C=C/[C@@H](O)[C@H](O)C[C@@H](O)CC=C | active: 18.4 µM | –
27 | CN(C)C1=NCCN1CC1CCCCC1 | – | inactive: -1.83%
28 | Cc1cc(NC(=O)c2cccs2)n(-c2nc3ccccc3[nH]2)n1 | inconclusive [inhibitor, single point] | –
29 | COc1ccc(-c2nc(Cn3c(=O)cc(-c4ccccc4)c4c(C)nn(C)c43)c(C)o2)cc1OC | inconclusive [inhibitor, single point] | –
30 | O=C(Nc1cccc(-n2cccn2)c1)C1CCCN(Cc2ccc(C#CCCO)cc2)C1 (centres undefined) | inconclusive [inhibitor, single point] | –
31 | CC(=O)c1cccc(NC(=O)CCc2nc3cccnc3n2Cc2cccs2)c1 | inconclusive [inhibitor, single point] | –
32 | CN(C(=O)C=Cc1ccco1)c1ccccc1 | inconclusive [inhibitor, single point] | –
33 | CCCCn1nnnc1C(c1ccccc1)N1CCN(c2cccc(C(F)(F)F)n2)CC1 (centres undefined) | inconclusive [inhibitor, single point] | –
34 | Nc1[nH]n2c(=O)c3c(nc2c1N=Nc1ccc(Cl)cc1)CCCC3 | inconclusive [inhibitor, single point] | –
35 | N#CC1C(=N)Cc2ccccc2-c2ccccc21 (centres undefined) | inconclusive [inhibitor, single point] | –
36 | CCn1c2ccc(C)cc2c2nnc(SCCN3CCOCC3)nc21 | inconclusive [inhibitor, single point] | –
37 | COc1ccccc1N1CCN(C(=O)CN2C(=O)C3CCCCC3C2=O)CC1 (centres undefined) | – | inactive: -3.11%
38 | COc1ccc(/C=C(/NC(=O)c2ccco2)C(=O)Nc2ccc(C(=O)O)cc2)cc1 | – | inactive: -1.08%
39 | CC(C)CNC(=O)C1(C)CCCN1C(=O)CSc1ccccc1 (centres undefined) | – | inactive: -17.6%
40 | COc1c(F)c(F)c(C(=O)Nc2ccccc2N2CCN(C(=O)C(C)C)CC2)c(F)c1F | – | inactive: -6.46%
41 | COc1ccc(C2CC(=O)C=C3c4ccc(OC)cc4CCC32)cc1 (centres undefined) | inconclusive [inhibitor, partial curve, poor fit] | –
42 | COc1ccc(N(CC(=O)NC2CCCCCC2)S(=O)(=O)c2ccc(C)cc2)cc1OC | – | inactive: -1.19%
43 | CCOC(=O)CSc1nc(-c2ccc(F)cc2)cc(C(F)(F)F)c1C#N | – | inactive: -4.27%
44 | O=C(NCCCN1CCOCC1)c1cc(-c2ccc(Br)cc2)on1 | inconclusive [inhibitor, partial curve] | –
